# Laboratory results from the supplement of paper PMC4604168 (melanoma cell lines).
# The other results are listed elsewhere or left out. Many values rest on one well or one pass, so single values are uncertain.
# How the values were obtained:
# Experiment in all cases: cell count relative to DMSO control; melanoma cells; higher = more viable cells
# Conditions in all cases: library dose: standard library concentration; 72 h
# A101D = test system: A101D
# A2058 = test system: A2058
# A375 = test system: A375
# 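Further: cells treated in 1,536-well plates, then fixed and DAPI-stained, with nuclei counted from automated high-throughput microscope images.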
SMILES,cell count (A101D) [%],cell count (A2058) [%],cell count (A375) [%]
"Cn1c(=O)n(-c2ccc(C(C)(C)C#N)cc2)c2c3cc(-c4cnc5ccccc5c4)ccc3ncc21 + CC(C)C[C@H](NC(=O)[C@H](Cc1ccccc1)NC(=O)c1cnccn1)B(O)O [Bortezomib] (first compound 0.02 µM, partner dose 0.005 µM)",25.4,30.1,109
"COc1ccc(C2=N[C@@H](c3ccc(Cl)cc3)[C@@H](c3ccc(Cl)cc3)N2C(=O)N2CCNC(=O)C2)c(OC(C)C)c1 [Nutlin-3] + CC(C)(C)c1cnc(CSc2cnc(NC(=O)C3CCNCC3)s2)o1 [SNS-032] (first compound 0.5 µM, partner dose 0.05 µM)",57.8,75.9,81.6
"Cc1cc(Nc2cc(N3CCN(C)CC3)nc(/C=C/c3ccccc3)n2)n[nH]1 + O=C(O)[C@@H]1[O][Sb](=[O])([O][Sb]2(=[O])[O][C@H]([C@H](O)CO)[C@H](O)[C@H](C(=O)O)[O]2)[O][C@H]([C@H](O)CO)[C@@H]1O [stibogluconate] (first compound 0.2 µM, partner dose 10 µM)",78.9,84.5,112
"COc1ccc(C2=N[C@@H](c3ccc(Cl)cc3)[C@@H](c3ccc(Cl)cc3)N2C(=O)N2CCNC(=O)C2)c(OC(C)C)c1 [Nutlin-3] + CN(NC(=O)CC(=O)NN(C)C(=S)c1ccccc1)C(=S)c1ccccc1 [STA4783] (first compound 0.5 µM, partner dose 0.03 µM)",55.6,15.1,95
"Cc1cn(-c2cc(NC(=O)c3ccc(C)c(Nc4nccc(-c5cccnc5)n4)c3)cc(C(F)(F)F)c2)cn1 [nilotinib] + COc1ccc(Cl)c(Nc2nc3ccccc3nc2NS(=O)(=O)c2cccc(NC(=O)C(C)(C)N)c2)c1 [XL147] (first compound 1 µM, partner dose 4 µM)",102,89.2,112
"COc1ccc(C2=N[C@@H](c3ccc(Cl)cc3)[C@@H](c3ccc(Cl)cc3)N2C(=O)N2CCNC(=O)C2)c(OC(C)C)c1 [Nutlin-3] + Cc1nc(Nc2ncc(C(=O)Nc3c(C)cccc3Cl)s2)cc(N2CCN(CCO)CC2)n1 [dasatanib] (first compound 0.5 µM, partner dose 0.02 µM)",65.3,68.2,77.2
"CC(C)C[C@H](NC(=O)[C@H](Cc1ccccc1)NC(=O)c1cnccn1)B(O)O [Bortezomib] + Clc1ccc(Nc2nnc(Cc3ccncc3)c3ccccc23)cc1 [vatalanib] (first compound 0.005 µM, partner dose 10 µM)",14.3,9.91,72.9
"Cc1cn(-c2cc(NC(=O)c3ccc(C)c(Nc4nccc(-c5cccnc5)n4)c3)cc(C(F)(F)F)c2)cn1 [nilotinib] + C=CCn1c(=O)c2cnc(Nc3ccc(N4CCN(C)CC4)cc3)nc2n1-c1cccc(C(C)(C)O)n1 [MK1775] (first compound 1 µM, partner dose 0.1 µM)",66.2,85.1,81.2
"Cc1cn(-c2cc(NC(=O)c3ccc(C)c(Nc4nccc(-c5cccnc5)n4)c3)cc(C(F)(F)F)c2)cn1 [nilotinib] + COCC[n+]1c2c(n(Cc3cnccn3)c1C)C(=O)c1ccccc1C2=O [YM155] (first compound 1 µM, partner dose 0.002 µM)",59.4,22.8,56
"CC(C)C[C@H](NC(=O)[C@H](Cc1ccccc1)NC(=O)c1cnccn1)B(O)O [Bortezomib] + CO[C@H]1C[C@@H]2CC[C@@H](C)[C@@](O)(O2)C(=O)C(=O)N2CCCC[C@H]2C(=O)O[C@H]([C@H](C)C[C@@H]2CC[C@@H](OCCO)[C@H](OC)C2)CC(=O)[C@H](C)/C=C(\C)[C@@H](O)[C@@H](OC)C(=O)[C@H](C)C[C@H](C)/C=C/C=C/C=C/1C [everolimus] (first compound 0.005 µM, partner dose 0.1 µM)",21.1,23.5,99.9
"Cc1cc(Nc2cc(N3CCN(C)CC3)nc(/C=C/c3ccccc3)n2)n[nH]1 + NC(=O)Nc1cc(-c2cccc(F)c2)sc1C(=O)N[C@H]1CCCNC1 [AZD7762] (first compound 0.2 µM, partner dose 0.1 µM)",64.3,78,67.8
